Reference: PubChem BioAssay AID602332 (National Center for Advancing Translational Sciences (NCATS), 2012)
Values joined by “and” are separate entries in the source; they are usually repeats but may differ in a detail not shown here. Equal values may be shown once. The campaign covered roughly 420,000 compounds. About 75 (0.02%) were called active. This list was built around the results that the source calls inconclusive (neither active nor inactive); the mix of calls is not that of the screen. The call rests on the fitted dose curve; in most records, active means well fitted activation curve with a large enough effect; inconclusive means small, poorly fitted or top-dose-only effect; inactive means no such curve, though single readings can be large or run the other way. Where the call is inconclusive, the potency comes from a doubtful curve fit. More than one record can exist for a structure, and the calls need not agree.

Experiment: qHTS for Inducers of the Endoplasmic Reticulum Stress Response (ERSR) in Human Glioma: qHTS; further: nearly all actives have a fitted effect of over 35% in size; on activation: % of control where 0% means no effect
Conditions: U87-MG GRP78 promoter luciferase reporter, 16 h; activation: hits give high values
How it was run: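 ERSR induction read as luciferase luminescence (Bright-Glo, 10 min at room temperature) in stably transfected human U87-MG glioma cells exposed to compounds for 16 h, using GRP78 as sensor.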
Potency means the concentration at half of the fitted maximal effect; tags describe the fitted curve by direction and shape.

Potency, active:
O=C(O)c1cc([N+](=O)[O-])ccc1NCCCc1ccccc1 28.2 µM

Potency, inconclusive:
c1ccc(CN(CCN(Cc2ccccn2)Cc2ccccn2)Cc2ccccn2)nc1 31.6 µM [activator, single point]
O=C(/C=C/c1ccccc1)c1ccccn1 15.8 µM [activator, single point]
COc1cc(OC)cc(C(=O)Nc2ccc3nc4n(c(=O)c3c2)CCCCC4)c1 2 µM [activator, partial curve, poor fit]
O=S(=O)(Nc1cccc2cccnc12)c1ccc2ccccc2c1 14.1 µM [activator, single point]
CCOC(=O)c1c(-c2ccc(OC)cc2)csc1NC(=O)CSc1nnc(C)c(=O)[nH]1 63.1 µM [activator, single point]
COc1ccc(C(CCNCc2ccccc2)c2ccc(F)cc2)cc1 (stereo not drawn) 12.6 µM [activator, single point]
Cc1ccc(Nc2cc(C)c3ccc(O)cc3n2)cc1C 11.2 µM [activator, partial curve, poor fit]
Cc1ccc(C)c(-c2csc(NC(=O)c3c(C)noc3C)n2)c1 12.6 µM [activator, single point]
Cc1cc(C)cc(Nc2nc3ccccc3c(=O)[nH]2)c1 28.2 µM [activator, partial curve, poor fit]
CCOC(=O)c1c(NC(=O)/C=C\C(=O)O)sc(C)c1-c1ccccc1 63.1 µM [activator, single point]
O=C(Nc1ccc2c(c1)OCO2)C1CC1(Cl)Cl (stereo not drawn) 28.2 µM [activator, single point]
COc1ccc(-c2cc(C(=O)Nc3ccc(C(N)=O)cc3)c3ccccc3n2)cc1OC 20 µM [activator, single point]
Cc1c(C(=O)NCc2ccc(C(F)(F)F)cc2)sc(=O)n1Cc1cccc(F)c1 28.2 µM [activator, partial curve, poor fit]
CCc1ccc(NC(=O)C(C)OC(=O)c2cc(=O)[nH]c3ccc(S(=O)(=O)Nc4ccc(F)cc4)cc23)cc1 (stereo not drawn) 44.7 µM [activator, partial curve, poor fit]
CC(SC1=Nc2ccccc2C2CC=NN12)C(=O)NC1(C#N)CCCCC1 (stereo not drawn) 63.1 µM [activator, single point]
C[C@]12CC[C@H]3c4ccc(O)cc4CC[C@@H]3[C@H]1CC[C@@H]2OC(=O)CCC1CCCC1 28.2 µM [activator, single point]
O=C(CN1/C(=C(/O)c2ccccc2)C(=O)c2ccccc2S1(=O)=O)c1ccccc1 31.6 µM [activator, single point]
Cc1nc2sc3c(O)cc(=O)[nH]c3c2c(C)c1C 50.1 µM [activator, single point]
O=C(Nc1ccccc1C(=O)NC1CC1)c1ccc([N+](=O)[O-])o1 11.2 µM [activator, single point]
CCCc1[nH]nc2c1C(c1ccc(OC)c(Cn3nc(C)c(Br)c3C)c1)C(C#N)=C(N)O2 (stereo not drawn) 50.1 µM [activator, single point]
CCOc1ccc(NS(=O)(=O)c2ccc(C(=O)NCCCN3CCOCC3)cc2)cc1 28.2 µM [activator, single point]
COc1ccc(CC(=O)N2CCc3ccccc32)cc1 5.01 µM [activator, partial curve, poor fit]
COc1ccc(CNC(=O)c2c(Nc3ccc(OC)cc3OC)sc(C(=O)c3ccc(Cl)cc3)c2N)cc1 50.1 µM [activator, single point]
CCOC(=O)N1CCN(S(=O)(=O)c2ccc(OCC(=O)OC)c(C)c2)CC1 22.4 µM [activator, partial curve, poor fit]
Cc1ccc(OCC(=O)N/N=C/C=C/c2ccco2)cc1C 44.7 µM [activator, partial curve, poor fit]
CC(C)(C)C1CCc2sc(C(=O)NNC(=O)CCl)cc2C1 (stereo not drawn) 44.7 µM [activator, partial curve, poor fit]
CC1(Cc2ccc(Cl)c(Cl)c2)C(=O)Nc2c(Cl)ccc(Cl)c21 (stereo not drawn) 44.7 µM [activator, single point]
CC1CN(C(=O)Nc2ccc3c(c2)OCCO3)CC(C)O1 (stereo not drawn) 14.1 µM [activator, full curve, poor fit]
CCn1c(SCC(=O)N/N=C(\C)c2ccncc2)nnc1-c1ccc(C)cc1 50.1 µM [activator, single point]
COc1ccc(NC(=O)c2c(NCc3cccc(OC)c3)sc3c2CCC3)cc1 50.1 µM [activator, single point]
Cc1cccc(-n2c3nc(=O)[nH]c(=O)c-3cc3cc([N+](=O)[O-])ccc32)c1 50.1 µM [activator, single point]
CNC(=S)Nc1cc2oc3ccccc3c2cc1OC 2.24 µM [activator, full curve, poor fit]
CCCN1C(=O)c2[nH]nc(-c3ccccc3O)c2C1c1cccc(OCc2ccccc2)c1 (stereo not drawn) 14.1 µM [activator, full curve]
O=C(NN1C(=O)c2ccccc2NC1c1ccc([N+](=O)[O-])o1)c1ccc([N+](=O)[O-])cc1 (stereo not drawn) 20 µM [activator, single point]
CCCCc1ccc(S(=O)(=O)NC(=O)C2(C)CCN2C(=O)C/C=C/c2ccccc2)cc1 (stereo not drawn) 50.1 µM [activator, single point]
Cc1ccc(Nc2nc(-c3ccc(O)c(O)c3)cs2)nc1 2.24 µM [activator, partial curve, poor fit]
C[C@@H]1CCC2[C@@H](C)[C@@H](O)O[C@@H]3O[C@@]4(C)CC[C@@H]1[C@@]23OO4 (stereo partly drawn) 50.1 µM [activator, single point]
O=C1/C(=C\c2cccnc2)Sc2ccccc21 44.7 µM [activator, single point]
CSc1nc(N)c2ncn([C@H]3O[C@H](COP(=O)(O)OP(=O)(O)OP(=O)(O)O)[C@@H](O)[C@@H]3O)c2n1 35.5 µM [activator, partial curve, poor fit]
COc1ccc(/C(N)=N/OC(=O)Cc2cccs2)cc1OC 15.8 µM [activator, single point]
O=C(N/N=C/c1ccccc1)c1ccc(-c2ccccc2)cc1 50.1 µM [activator, single point]
O=C(C#Cc1ccccc1)Nc1ccc(F)cc1 70.8 µM [activator, partial curve, poor fit]
O=C(c1ccccc1)c1cccn1CC(=O)N1CCN(C2CCCCC2)CC1 28.2 µM [activator, single point]

activation, inactive:
CN1[C@H](CC(=O)c2ccccc2)CCC[C@H]1C[C@@H](O)c1ccccc1 -6.17%
O=C1CC2(CCN(C(=O)COc3ccccc3F)CC2)Oc2ccccc21 -3.97%
O=C(Nc1ccccc1C(=O)N1CCN(c2cccc(Cl)c2)CC1)C1=CSCCO1 -3.43%
Cc1c(C(=O)N2CCCCC2)sc2ncnc(NCCc3ccccn3)c12 -4.13%
C[C@H](CO)N1C[C@H](C)[C@@H](CN(C)Cc2ccc(Cl)c(Cl)c2)Oc2c(NS(=O)(=O)c3ccc(F)cc3)cccc2C1=O -4.98%
CCOC(=O)C1=C(C)NC(C)=C(C(=O)OCC)C1c1ccc(O)cc1 -5.85%
CCOc1ccc(S(=O)(=O)N(C(=O)c2ccncc2)c2ccc3oc(C)c(C(=O)OC)c3c2)cc1 1.3%
CC(C)C[C@@H](CN1CCC[C@@H]1CN1C(=S)NC[C@@H]1Cc1ccccc1)N1C[C@H](Cc2ccc(O)cc2)N(CC2CCCCC2)C1=S 1.72%
O=c1nccc(NCc2ccco2)[nH]1 -4.73% and -1.68%
COc1ccc2nc(S(=O)Cc3ncc(C)c(OC)c3C)[nH]c2c1 (stereo not drawn) -0.412% [middle of 5 runs]
O=C(c1ccc(Cl)cc1)N(c1ccccn1)C1CCCCC1 -4.03%
Cc1ncoc1C(=O)N1CCCC(CCC(=O)NCc2ccccc2F)C1 (stereo not drawn) 0.202%
O=C(O)CSc1nnc(-c2ccc(S(=O)(=O)N3CCCC3)cc2)n1Cc1ccco1 3.43%
CCNc1nc(SCC(=O)Nc2ccccc2)nc(N2CCOCC2)n1 -7.21%
CC(=O)N1CCCc2cc(S(=O)(=O)NCc3ccc(N(C)C)cc3)ccc21 0.746%
O=C1C(Cl)=C(NCCc2ccccc2)C(=O)N1CCc1ccccc1 -0.647%
Cc1ccnn1CC(=O)N/N=C/c1ccc2c(c1)OCO2 0.734%
Cc1cnc(C=NNC(N)=S)c2cccc(N)c12 -5.54%
CCC(=O)N1CCN(c2ccc(NC(=O)c3ccc4c(c3)OCCO4)cc2)CC1 0.923%
